Results as given in PubChem BioAssay AID624296 (National Center for Advancing Translational Sciences (NCATS), 2012).
Among all 350,000 compounds or so, about 9,900 (2.8%) were called active. Inconclusive means that the source gave no clear call. Such entries were picked first, then a sample of the others. Calls follow the shape of the dose curve; as a rule, active = well fitted activation curve with a large enough effect; inconclusive = small, poorly fitted or top-dose-only effect; inactive = no such curve, though single readings can be large or run the other way. No potency is given beside an inconclusive call; the fits are too rough.

assay: A quantitative high throughput screen for small molecules that induce DNA re-replication in MCF 10a normal breast cells.; also: nearly all actives have a fitted effect of over 50% in size; as to activity, positive = re-replication: % of control where 0% means no effect; conditions: MCF 10A DNA re-replication, Hoechst nuclear intensity, 48 h; activity, positive = re-replication: at 46.1 µM (top of the series)
Potency is read from the fitted curve at half-maximal effect; tags tell the direction and shape of the fitted curve.

SMILES	activity, positive = re-replication	Potency
Cc1ccc(CNC(=O)CN2CCN(c3ccc(F)cc3)CC2)cc1	inactive: -3.48%	–
COc1ccccc1C=NNC(=O)c1ccccc1OCCOc1ccccc1	–	inconclusive [activator, partial curve, poor fit]
CCSc1nc2c(c(=O)[nH]c(=O)n2C)n1CC(O)COc1ccccc1C (configuration not stated)	–	inconclusive [activator, partial curve, poor fit]
Cc1ccc(NC(=O)[C@H](NC(=O)[C@@H]2Cc3ccccc3CN2)c2ccccc2)cc1C	–	active: 25.9 µM
O=C(CSc1nc2ccccc2c(=O)[nH]1)c1ccc(O)c(O)c1	inactive: 22%	–
CN(C)c1ccc(C(C(=O)NC2CCCCC2)N(Cc2ccco2)C(=O)c2snc(C(N)=O)c2N)cc1 (configuration not stated)	inactive: 9.45%	–
FC(F)Oc1cccc(NC(=S)N2CCN(c3ccccn3)CC2)c1	inactive: -6.49%	–
COc1ccc(/C=C2\CCc3ccccc3C2=O)cc1O	–	inconclusive [activator, partial curve, poor fit]
COc1ccc(-c2cn3nc(SCC(=O)NC4CCCCC4)ccc3n2)cc1	–	active: 3.66 µM
COC(=O)c1sc(NC(=O)c2ccc(C)o2)nc1C	inactive: -0.153%	–
Cc1ccc(S(=O)(=O)Nc2cccc(Oc3cnccn3)c2)cc1	–	inconclusive [activator, single point]
CN(C)c1ccc(-c2noc(C3CCN(C(=O)Nc4ccc(Cl)cc4)CC3)n2)cc1	–	inconclusive [activator, partial curve, poor fit]
Cc1c(Cl)cn2c(=O)cc(CN3CCN(c4ccccc4)CC3)nc2c1Cl	inactive: -1.36%	–
Cc1cc(Cl)c(S(=O)(=O)NCc2ccncc2)cc1OCC(N)=O	inactive: 2.94%	–
CNC(=O)c1cc(S(=O)(=O)N2CC(C)OC(C)C2)ccc1N1CCOCC1 (configuration not stated)	–	inconclusive [activator, single point]
CCCCC(=O)NC(c1ccc(OC)c(OC)c1)c1ccc2cccnc2c1O (configuration not stated)	–	inconclusive [activator, partial curve, poor fit]
Cc1cc(N/N=C/c2ccc(N(C)C)cc2)nc(NCc2ccccc2)n1	–	active: 8.2 µM
CCNS(=O)(=O)c1c(C)cc(C)c(N(C)S(=O)(=O)c2ccccc2)c1C	inactive: -5.37%	–
Cc1ccc(-n2ncc3c(=O)n(-c4ccc(C)c(C)c4)c(-c4ccco4)nc32)cc1	–	inconclusive [activator, partial curve]
N#CC1=C(N)Oc2c(ccc3cccnc23)C1c1cccnc1 (configuration not stated)	–	active: 8.2 µM
O=C(O)c1c(-c2ccccc2)c2oc3ccccc3c2[nH]c1=O	–	inconclusive [activator, partial curve, poor fit]
COC(=O)[C@@H]1C[C@H]2CC[C@H](O)C[C@H]2N1Cc1ccc(-c2ccccc2)cc1	–	inconclusive [activator, partial curve, poor fit]
O=C(c1cccc([N+](=O)[O-])c1)N1CCN(c2cccc(Cl)c2)CC1	–	active: 16.4 µM
O=C(N/N=C/c1ccccc1C(=O)O)c1cc(-c2ccc3c4c(cccc24)CC3)n[nH]1	–	inconclusive [activator, full curve, poor fit]

SMILES	activity, positive = re-replication	Potency
O=C(Nc1cccc(S(=O)(=O)N2CCCCC2)c1)c1c2c(nc3ccccc13)CCN(Cc1ccccc1)C2	–	inconclusive [activator, single point]
CCC(C)NCC(=O)Nc1ccc([N+](=O)[O-])cc1C(=O)Nc1ccccc1F (configuration not stated)	–	inconclusive [activator, single point]
CCN(CC)CCNC(=O)C12CC3CC(C)(CC(C)(C3)C1)C2	–	inconclusive [activator, single point]
Cc1nnc2sc(SCc3ccc(Cl)cc3)nn2c1=O	–	inconclusive [activator, single point]
O=C(CSc1nnnn1-c1ccccc1)Nc1nsc(-c2ccc(Cl)cc2)n1	–	inconclusive [activator, single point]
CC1(C)Oc2ccccc2OC1(O)c1ccc2ccccc2n1 (configuration not stated)	–	inconclusive [activator, single point]
O=S(=O)(/C(=C\c1ccc(C(F)(F)F)cc1)c1nc2ccccc2[nH]1)c1ccccc1	–	inconclusive [activator, partial curve, poor fit]
COCCC(=O)N1CCc2ccc(NC(=O)c3ccc(C(F)(F)F)cc3)cc2C1	inactive: 16.8%	–
CN(Cc1ccc(O)cc1)C1CCCCC1	inactive: 5.9%	–
CN(c1ccccc1)c1nc2ccsc2c(=O)s1	inactive: 28.2%	–
COC(=O)C1=CN(Cc2ccc(OC)cc2)C=C(C(=O)OC)C1c1cccs1	–	inconclusive [activator, single point]
O=C(O)c1cc2cc(Cl)cc(Cl)c2oc1=O	–	inconclusive [activator, single point]
Cc1cc(C)c(C#N)c(N)n1	–	inconclusive [activator, full curve, poor fit]
Cc1ccc(NNC(=O)C(=O)N2CCCCC2)cc1	–	active: 6.51 µM
Cc1ccc(C2=Nc3ccc(Br)cc3C(c3ccncc3)=NN2)cc1	–	inconclusive [activator, single point]
CCN(CC(=O)Nc1c(F)cccc1F)C(=O)c1ccc(OCC(=O)N2CCOCC2)c(OC)c1	inactive: -10.4%	–
CCCn1c(SCN2C(=O)c3ccccc3C2=O)nc2cc(Cl)ccc2c1=O	inactive: 0.0268%	–
COc1ccc(-c2ccc(=O)n(CC(=O)NCC3COCCO3)n2)cc1 (configuration not stated)	inactive: -6.29%	–
Cc1ccc(N=C2NC(=O)/C(=C/c3cn(C)c4ccccc34)S2)cc1C	–	active: 20.6 µM
Oc1ccc(COCc2ccccc2)c2cccnc12	–	inconclusive [activator, single point]
CCn1cc(CNCc2cn(C)nc2-c2ccc(C3CCCCC3)cc2)cn1	–	inconclusive [activator, partial curve, poor fit]
COC(=O)c1c(NC(=O)CSc2nnc(C)c(=O)[nH]2)sc(C)c1C	–	inconclusive [activator, single point]
COc1ccccc1NC(=O)c1oc2ccccc2c1NC(=O)c1cc(OC)c(OC)c(OC)c1	–	inconclusive [activator, partial curve, poor fit]
CCc1nc(SCC(=O)c2ccccc2)c2ccccc2n1	–	inconclusive [activator, single point]

SMILES	activity, positive = re-replication	Potency
CCn1c(SCC(=O)Nc2sc3c(c2C#N)CCC(C(C)(C)C)C3)nnc1-c1ccco1 (configuration not stated)	–	inconclusive [activator, partial curve, poor fit]
CCOc1cc(-c2sc(Nc3cc(C)ccc3OC)n[n+]2-c2ccccc2)ccc1OC	–	inconclusive [activator, full curve, poor fit]
C=C(C)COC(=O)C1CC2OC2CC1C(=O)OCC(=C)C (configuration not stated)	inactive: 1.04%	–
Cc1ccc(OCCOc2ccc(Cl)cc2Cl)c([N+](=O)[O-])n1	–	inconclusive [activator, partial curve, poor fit]
CN1CCN(C(=S)NC(=O)/C=C/c2ccccc2)CC1	inactive: -10.9%	–
Cc1ccc(NC(=O)Nc2ccc3c(c2)OCO3)nc1	–	inconclusive [activator, partial curve, poor fit]
CCOc1ccc(C(c2c(NC(=O)c3ccco3)sc(C)c2C)N2CCOCC2)cc1 (configuration not stated)	–	active: 20.6 µM
COc1ccc2c(C)cc(N3CCCCCC3)nc2c1	–	inconclusive [activator, partial curve]
COc1ccc2[nH]c(C(=O)N3CCC(n4nccc4NC(=O)C4CC4)CC3)c(C)c2c1	inactive: -0.0267%	–
COc1ccc(/C=C/C(=O)OCC(=O)NCCC2=CCCCC2)cc1	–	inconclusive [activator, single point]
CCCCOc1cccc(/C=C(\C#N)C(=O)NC2CC2)c1	–	inconclusive [activator, partial curve, poor fit]
O=S1(=O)CCOC[C@H](CC2CCCCC2)N1Cc1ccccc1F	–	inconclusive [activator, single point]
CC(C)Oc1cccc(C(=O)NC(=S)Nc2cccc(C(F)(F)F)c2)c1	inactive: -0.12%	–
CCOC(=O)CSc1nc(C)c2ccc(C)cc2n1	inactive: 6.92%	–
Cn1ccc(C(=O)Nc2ccc(Br)cc2Br)n1	inactive: 29.6%	–
CCn1c(Cn2nnc(-c3ccccc3)n2)nnc1SCC(=O)N1CCOCC1	–	inconclusive [activator, single point]
Cc1cc(C)c2cc(C(=O)Nc3ccc4c(c3)OCO4)[nH]c2c1	–	inconclusive [activator, single point]
COc1ccc(-c2cc(C(=O)N3CCN(c4ncccn4)CC3)c3ccccc3n2)cc1	inactive: 28.1%	–
Cc1cc(/C=N/NC(=O)Cn2c3ccccc3c(=O)c3ccccc32)c(C)n1-c1ccc(Cl)cc1	–	active: 11.6 µM
Cc1ccc(N(CC(O)COCc2ccco2)S(=O)(=O)c2ccc(C)cc2)cc1 (configuration not stated)	–	inconclusive [activator, single point]
O=C(C/C=N/OCc1c(Cl)cccc1Cl)c1ccc(Cl)cc1	–	active: 23.1 µM
CC(=O)N1c2ccc(S(=O)(=O)N3CCCC3)cc2CC1C(=O)Nc1cc(C)cc(C)c1 (configuration not stated)	inactive: 19.8%	–
CC1CCCCN1C(=O)c1cccc(NC2=C(Cl)C(=O)N(Cc3ccccc3)C2=O)c1 (configuration not stated)	–	active: 23.1 µM
CC(C)N(C(=O)COC(=O)CCC(=O)c1cccs1)c1ccccc1	inactive: 2.4%	–
